The campaign covered roughly 43,000 compounds. About 200 (0.47%) were called active. Inconclusive results (about 12%) are left out. Calls come from the whole dose curve; as a rule, active = well fitted cell-killing curve with a large enough effect; inconclusive = small, poorly fitted or top-dose-only effect, or effect the other way; inactive = flat fitted curve, though single readings scatter. The list shows a part of the results.
Experiment: Cell viability qHTS assay in S16 Pmp22-F2sN cells; note: nearly all actives have a fitted effect of over 65% in size
Conditions: S16 Pmp22-F2sN Schwann cells viability, CellTiter-Glo, 24 h; series mostly up to 57.5 µM; activity change, negative = cytotoxicity: at the top concentration
How it was run: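 S16 Pmp22-F2sN Schwann cells (500-1,000/well) in phenol-red-free DMEM with 10% FBS received 23 nL compound by pin tool for 24 h at 37 °C. Viability was then read as CellTiter-Glo luminescence after 15 min at room temperature.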
% is set by controls: 0 for no effect and ±100 for the full control effect.

Row | SMILES | activity change, negative = cytotoxicity
1 | CC1CCCCN1CCCNC(=O)Cn1ncc2c3ccccc3n(C)c2c1=O (stereo unspecified) | inactive: 18.5%
2 | Cc1ccc(S(=O)(=O)c2cc3cc(C(=O)Nc4ccc(C)cc4C)ccc3oc2=O)cc1 | inactive: -9.81%
3 | CCc1ccccc1NC(=O)c1ccc(F)c(S(=O)(=O)N2CCN(c3cccc(Cl)c3)CC2)c1 | inactive: 15.8%
4 | CC1CCN(S(=O)(=O)c2ccc3nc(N4CCN(c5ccc(F)cc5)CC4)ccc3c2)CC1 | inactive: -2.01%
5 | Cc1ccc(O)c(-c2n[nH]c3c2C(c2ccc(F)cc2)N(Cc2ccco2)C3=O)c1 (stereo unspecified) | inactive: -17.2%
6 | O=C(COCc1cc(-c2cccs2)on1)Nc1cc(C(F)(F)F)ccc1Cl | inactive: 14.4%
7 | CC(C)OCCCNC(=O)CCCN1C(=O)CCn2nc(-c3cccn3C)cc21 | inactive: -1.22%
8 | COc1cccc(C(=O)N(Cc2ccc(C)o2)C2CCS(=O)(=O)C2)c1 (stereo unspecified) | inactive: -10.7%
9 | COc1ccc(-c2cc(C(F)(F)F)nc(NCc3ccc(F)cc3)n2)cc1 | inactive: 13.5%
10 | COc1cc(C(CC(=O)Nc2ncccc2C)N2Cc3ccccc3C2=O)cc(OC)c1OC (stereo unspecified) | inactive: 7.43%
11 | CCN(c1ccccc1)S(=O)(=O)c1ccc(NC(=O)c2nc(SC(C)C)ncc2Cl)cc1 | inactive: -4.14%
12 | O=C(OCc1cc(=O)n2nc(C3CC3)sc2n1)c1ccc(NC(=O)c2ccccc2F)cc1 | inactive: 7.1%
13 | Cc1ccc(C(=O)N2CCC(C)CC2)cc1NC(=O)c1nsc2ccccc12 | inactive: 0.306%
14 | CC(=O)c1cc(-c2ccc(F)cc2)n(CCC(=O)Nc2nc3ccc(C)cc3s2)c1C | inactive: -20.1%
15 | COc1ccc(OC)c(/C=C(\C#N)c2nc(-c3ccc(F)cc3)cs2)c1 | inactive: -6.4%
16 | COC(=O)c1ccc2c(c1)N(Cc1ccccc1)C(=O)c1ccccc1S2(=O)=O | inactive: 9.12%
17 | COc1ccc(Cn2c(C(=O)O)c(CNC3CCCCC3)c3ccc(C)cc32)cc1 | inactive: -13.1%
18 | COc1ccc(Cl)cc1NC(=O)CN1Cc2ccccc2C1=O | inactive: 1.94%
19 | Cc1nc(S(=O)(=O)N2CCN(c3ccccc3F)CC2)cn1C | inactive: 2.1%
20 | COc1ccc2c(c1)CCc1c(C(=O)Nc3ccc(OC)cc3OC)noc1-2 | inactive: -15.1%
21 | COc1ccccc1NC(=O)c1sc2nc3n(c(=O)c2c1C)N=C(c1cccc(Br)c1)CS3 | inactive: 3.05%

Row | SMILES | activity change, negative = cytotoxicity
22 | CCCC12CN3CC(C)(CN(C1)C3c1ccc(OCc3ccccc3)cc1)C2=O (stereo unspecified) | inactive: -1.57%
23 | Cc1cccc(CNC(=O)CN2C(=O)CCn3nc(-c4cn(C)c5ccccc45)cc32)c1 | inactive: 2.78%
24 | O=C(O)c1ccc(NC(=O)c2ccc(Br)c(S(=O)(=O)N3CCCC3)c2)cc1 | inactive: 10.2%
25 | CCOc1ccc(NC(=O)Cc2c[nH]c3ccccc23)cc1 | inactive: 7.54%
26 | CCN1C(=O)C(Cc2nc3ccccc3c(=O)n2C)c2cc(C)ccc21 (stereo unspecified) | inactive: 1.88%
27 | O=C(Nc1ccc(Cl)cc1)c1cc(S(=O)(=O)NC2CCCCCC2)ccc1F | inactive: -25.5%
28 | O=C(CN1CCN(Cc2ccccc2Cl)C1=O)NCCc1ccc(Cl)cc1 | inactive: 17.4%
29 | Cc1ccc(-c2csc3ncnc(Nc4ccc(C(=O)O)cc4)c23)cc1 | inactive: -2.06%
30 | COc1ccccc1-c1nc2cc(NC(=O)c3ccccc3Cl)ccc2o1 | inactive: 30.9%
31 | CN(C(=O)Cn1nnc(-c2ccc(S(C)(=O)=O)cc2)n1)c1ccccc1 | inactive: 0.811%
32 | Cc1ccccc1NCc1nc2ccccc2n1CCOc1ccccc1 | inactive: -29.7%
33 | CCN1C(=O)c2ccccc2Sc2ccc(NC(=O)c3ccc(C#N)cc3)cc21 | inactive: -3.48%
34 | COc1ccc(NC(=O)CSc2oc(-c3ccco3)nc2S(=O)(=O)c2ccccc2)c(OC)c1 | inactive: 23.3%
35 | Cc1c(C(=O)N(C)C)sc2c1c(=O)n(-c1ccccc1C(F)(F)F)c(=O)n2Cc1cccc(F)c1 | inactive: -3.89%
36 | COc1ccc(C(=O)Nc2nc3c(s2)Cc2cc(OC)ccc2-3)cc1 | inactive: 12.9%
37 | Cc1ccc2c(c1)N(C(=O)N1CCC(C(=O)NCc3ccccc3F)CC1)CC(C)O2 (stereo unspecified) | inactive: -12.5%
38 | Cc1cccc(NC(=O)c2sc(-n3nc(C)c(CCC(C)C)c3C)nc2C)c1 | inactive: -3.02%
39 | CCOc1ccc(NC(=O)CCSc2nc(-c3ccc4c(c3)OCO4)cc(C(F)(F)F)n2)cc1 | inactive: -4.66%
40 | COc1ccc(-n2c3c(cc(-c4nc(-c5ccc(Cl)cc5)cs4)c2=O)C(=O)CC(C)(C)C3)cc1Cl | inactive: 2.33%
41 | COc1ccc(OC)c(NC(=O)N2CCN(Cc3nc4ccc(C)cc4o3)CC2)c1 | inactive: 19.1%
42 | COc1ccc(CCNc2nc3cc(OC)c(OC)cc3c3nc(-c4cccnc4)nn23)cc1OC | inactive: 5.37%

Row | SMILES | activity change, negative = cytotoxicity
43 | O=S(=O)(c1ccccc1)c1nc(-c2ccccc2F)oc1N1CCOCC1 | inactive: -16.7%
44 | COc1ccc(-c2cn3c(n2)sc2cc(C(=O)Nc4ccc(C)cc4C)ccc23)cc1 | inactive: 5.58%
45 | COc1cc2ccccc2cc1C(=O)Nc1ccc2oc(-c3cccc(C)c3)nc2c1 | inactive: 4.65%
46 | CCCCc1nn2c(=O)cc(COC(=O)c3ccccc3NC(=O)c3cccc(C)c3)nc2s1 | inactive: -4.09%
47 | Cc1cccc(NC(=O)c2c(C)oc3ncnc(N4CCCCC4)c23)c1C | inactive: 0.189%
48 | CCOC(=O)N1CCN(C(=O)Cn2ncc3c4ccccc4n(Cc4ccc(F)cc4)c3c2=O)CC1 | inactive: -17.8%
49 | CCOC(=O)c1c(NC(=O)COc2ccc(Br)cc2)sc(C(C)=O)c1C | inactive: -22.6%
50 | COc1ccccc1-c1nnc(C2CCN(S(=O)(=O)c3ccc(F)c(C)c3)CC2)o1 | inactive: 2.2%
51 | O=C(COc1ccc(F)cc1)Nc1ccc(Cl)c(-c2nc3ccccc3[nH]2)c1 | inactive: 11.7%
52 | Cc1noc(C)c1S(=O)(=O)NCCc1csc2nc(-c3ccc(Cl)cc3)nn12 | inactive: -18.4%
53 | Cc1ccc(C(=O)NCC(c2cccnc2)N2CCc3ccccc3C2)cc1C (stereo unspecified) | inactive: -14.1%
54 | CCOc1ccc(C(=O)c2c(N)c(-c3nc(-c4ccc(OCC)cc4)cs3)c3ccccn23)cc1 | inactive: -3.89%
55 | Cc1nc(-c2ccc(F)cc2)sc1CCNC(=O)c1ccc(C(C)(C)C)cc1 | inactive: 2.7%
56 | Cc1ccc(Cl)cc1NS(=O)(=O)c1ccc(N2CCCCS2(=O)=O)cc1 | inactive: 14.2%
57 | CC(=O)Nc1cccc(-c2cn3cccnc3n2)c1 | inactive: 7.38%
58 | Cc1ccc(NC(=O)Cn2c(=O)n(Cc3ccccc3)c(=O)c3c2c2cc(C)ccc2n3C)cc1 | inactive: 5.12%
59 | COc1ccc2nc(NC(=O)c3cc(=O)c4cc(C)c(C)cc4o3)sc2c1 | inactive: -5.58%
60 | CCOc1ccc(N2CC(c3nc4ccccc4n3CCOc3ccccc3)CC2=O)cc1 (stereo unspecified) | inactive: 4.2%
61 | Cc1nn(-c2ccccc2)c2sc(C(=O)Nc3cccc(Br)c3)cc12 | inactive: 9.71%

Reference: PubChem BioAssay AID1508642 (National Center for Advancing Translational Sciences (NCATS), 2021)
